The results in this text go back to the supplement of paper PMC4967469.

The IC50 comes from the fitted curve, where viability falls to half of the control; fits outside the tested doses are given as limits. AUC sums up the same curve from the lowest dose to the 256-fold higher top dose; it is 1 without any effect and falls as sensitivity rises. The top dose, if marked as inferred, was calculated from the reported fits. Some results are limits rather than exact numbers.

Holding throughout (experiment): Viability of human cancer cell lines after 72 h of drug (GDSC screen)
Compound in assay [1]: C=CC(=O)N1CCc2ccc(-n3c(=O)ccc4cnc5ccc(-c6cnn(C)c6)cc5c43)cc21 [QL-XII-47]
Conditions: top dose 10.24 µM; top dose inferred. The protocol:
(§1)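 Human cancer cell lines in 384-well plates, medium with 10% serum, drug for 72 h over a 256-fold dose range (nine 2-fold or five 4-fold steps up to the top dose). Adherent lines were fixed and stained with the nucleic acid dye Syto60, suspension lines read with resazurin; signal relative to control wells, capped at 0 and 100%. One two-parameter sigmoid per drug and line, fitted in a mixed model over all curves with the slope shared within a line.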

Compound in assay [2]: CCN1CCC(n2cc(CNc3cc(Cl)c4ncc(C#N)c(Nc5ccc(F)c(Cl)c5)c4c3)nn2)CC1 [KIN001-266]
Conditions: top dose 20 µM; top dose inferred. The protocol:
as §1

Compound in assay [3]: COc1ccc(-c2cc3nccn3c(Nc3ncccc3C(N)=O)n2)cc1OC [BAY 61-3606]
Conditions: top dose 8 µM; top dose inferred. The protocol: as §1

Compound in assay [4]: O=C1/C(=C/c2cccs2)CC/C1=C\c1cccs1 [CCT007093]
The conditions noted are these: top dose 6.6 µM; top dose inferred. Here is the method: as §1

Regarding SK-N-SH (neuroblastoma, adherent), the AUC in assay [1] was determined as 0.63; in assay [2], 0.854; in assay [3] it was 0.727; in assay [4], 0.975. Also, the IC50 (usually the concentration needed to halve the response being measured) in assay [1] is 1.46 µM; in assay [2] it was 15.5 µM; in assay [3], 2.19 µM; in assay [4] it was greater than 6.6 µM.

SK-OV-3 (ovary, adherent): the AUC in assay [1] was found to be 0.54; in assay [2], 0.871; in assay [3], 0.833; in assay [4] it was 0.981. Besides, the IC50 in assay [1] is 0.848 µM; in assay [2], greater than 20 µM; in assay [3], 7.08 µM; in assay [4], greater than 6.6 µM.

Consider SK-PN-DW (Ewing sarcoma, adherent), for which the AUC in assay [1] came out at 0.801; in assay [2], 0.828; in assay [3], 0.835; in assay [4] it was 0.973. The IC50 is 5.23 µM in assay [1], 13 µM in assay [2], 5.53 µM in assay [3] and greater than 6.6 µM in assay [4].

Take SK-UT-1 (soft tissue, adherent): the AUC was 0.57 in assay [1], 0.928 in assay [2], 0.849 in assay [3] and 0.989 in assay [4]. For the same cell line, the IC50 in assay [1] is 0.974 µM; in assay [2], greater than 20 µM; in assay [3], 5.19 µM; in assay [4], greater than 6.6 µM.

Consider SKG-IIIa (cervix, adherent), for which the AUC in assay [1] stood at 0.982; in assay [2] it was 0.972; in assay [3] it was 0.949; in assay [4], 0.966. The IC50 in assay [1] was greater than 10.2 µM; in assay [2] it was greater than 20 µM; in assay [3] it was greater than 8 µM; in assay [4], greater than 6.6 µM.

With SKN (uterus, adherent), the AUC was 0.602 in assay [1], 0.866 in assay [2], 0.796 in assay [3] and 0.976 in assay [4]. For the same cell line, the IC50 in assay [1] was 1.29 µM; in assay [2] it was greater than 20 µM; in assay [3] it was 4.65 µM; in assay [4], greater than 6.6 µM.

As for SKN-3 (head and neck, adherent), the AUC is 0.816 in assay [1], 0.87 in assay [2], 0.896 in assay [3] and 0.905 in assay [4]. The IC50 in assay [1] is 7.03 µM; in assay [2], greater than 20 µM; in assay [3], greater than 8 µM; in assay [4], greater than 6.6 µM.

With SLVL (B-cell lymphoma, suspension), the AUC in assay [1] was found to be 0.588; in assay [2], 0.864; in assay [3], 0.702; in assay [4], 0.986. In addition, the IC50 in assay [1] is 1.13 µM; in assay [2], 19.3 µM; in assay [3], 1.92 µM; in assay [4], greater than 6.6 µM.

On to SN12C (kidney, adherent), for which the AUC worked out at 0.885 in assay [1], 0.985 in assay [2], 0.974 in assay [3] and 0.962 in assay [4]. Also, the IC50 was greater than 10.2 µM in assay [1], greater than 20 µM in assay [2], greater than 8 µM in assay [3] and greater than 6.6 µM in assay [4].

Take SNB75 (glioma, adherent): the AUC stood at 0.715 in assay [1], 0.979 in assay [2], 0.948 in assay [3] and 0.979 in assay [4]. Besides, the IC50 in assay [1] was 3.48 µM; in assay [2], greater than 20 µM; in assay [3] it was greater than 8 µM; in assay [4], greater than 6.6 µM.

On to SNG-M (endometrium, adherent), for which the AUC worked out at 0.47 in assay [1], 0.828 in assay [2], 0.728 in assay [3] and 0.973 in assay [4]. Besides, the IC50 in assay [1] was 0.53 µM; in assay [2], 12 µM; in assay [3] it was 2.19 µM; in assay [4], greater than 6.6 µM.

SNU-182 (liver, adherent): the AUC turned out to be 0.796 in assay [1], 0.907 in assay [2], 0.898 in assay [3] and 0.983 in assay [4]. In addition, the IC50 is 5.05 µM in assay [1], greater than 20 µM in assay [2], greater than 8 µM in assay [3] and greater than 6.6 µM in assay [4].

SNU-387 (liver, adherent): the AUC is 0.59 in assay [1], 0.847 in assay [2], 0.753 in assay [3] and 0.984 in assay [4]. Moreover, the IC50 in assay [1] is 1.17 µM; in assay [2], 18 µM; in assay [3], 3.02 µM; in assay [4] it was greater than 6.6 µM.

As to SNU-398 (liver, adherent), the AUC in assay [1] stood at 0.407; in assay [2], 0.869; in assay [3], 0.644; in assay [4], 0.985. The IC50 in assay [1] was 0.353 µM; in assay [2], 19.8 µM; in assay [3], 1.28 µM; in assay [4], greater than 6.6 µM.

For the cell line SNU-423 (liver, adherent), the AUC stood at 0.288 in assay [1], 0.85 in assay [2], 0.858 in assay [3] and 0.983 in assay [4]. In addition, the IC50 in assay [1] is 0.144 µM; in assay [2], 19.3 µM; in assay [3] it was greater than 8 µM; in assay [4], greater than 6.6 µM.
